This passage reports binding signal results from publication PMC7819943, “Rice protein-binding microarrays: a tool to detect cis-acting elements near promoter regions in rice”.

Some of the results follow.

For the assay, the target named is T1, OsWOX13 (Oryza sativa, UniProt Q5QMM3 1-267).
T1 sequence: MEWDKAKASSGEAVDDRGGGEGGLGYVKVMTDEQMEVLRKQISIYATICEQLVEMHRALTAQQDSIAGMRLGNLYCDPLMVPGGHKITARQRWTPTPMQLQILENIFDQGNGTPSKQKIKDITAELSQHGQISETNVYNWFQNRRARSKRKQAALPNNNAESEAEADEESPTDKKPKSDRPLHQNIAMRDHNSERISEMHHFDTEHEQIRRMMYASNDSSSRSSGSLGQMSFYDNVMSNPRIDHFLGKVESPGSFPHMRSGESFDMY
In words: protein-binding microarray (RPBM); PBS, 2% BSA, 51.3 ng/ul salmon testes DNA, 50 uM zinc acetate, 200 nM TF, 25 C, 1 h; high values mean tight binding. Particulars: protein: recombinant; tags: N-terminal polyhistidine and DsRed monomer fusion (pET32a); label: CyDye5-dUTP incorporated in the synthesized complementary strand; 3' TTTTT single-stranded linker to array surface; dsDNA, one strand shown. Summed up: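 The binding signal for each feature is its fluorescence intensity in arbitrary units. An Axon 4000B scanner was used to read a custom Agilent array that had been made double-stranded with Cy5-dUTP primer extension, blocked with 2% BSA, incubated at 25 °C for 1 h with 200 nM protein in PBS, 2% BSA, salmon testes DNA and 50 µM zinc acetate, and washed. The protein was an N-terminal polyhistidine–DsRed transcription factor fusion from E. coli BL21-CodonPlus, purified on Ni–NTA.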
Take “GGAGATTGACGAAGTCACCACAGGCGCCTCGCTATCGACGCGGAGTCACCTAGTGCAG”: the binding signal was 38300 fluorescence intensity (a.u.). Under “TCCTTCGATCCGATCAATCAAACCTGCCATAGTCATAGTGCGGAGTCACCTAGTGCAG” stands 6500 fluorescence intensity (a.u.). As for “ATCTTAACCAATGCTGATTGACCACAGATGTTGCCCTTTCCGGAGTCACCTAGTGCAG”, the binding signal is 29900 fluorescence intensity (a.u.). For the sequence “TTAAACAAATAGGAAATTGGCGTTATGGGCTCGCTTACTGCGGAGTCACCTAGTGCAG”, the binding signal was 11700 fluorescence intensity (a.u.). With “TGACTGCTGACTGATCAGATGCCTCTTTTGAGTAAATTTTCGGAGTCACCTAGTGCAG”, the binding signal was 3170 fluorescence intensity (a.u.).

Regarding “TCTAGTTAGTAATTGAAGTAATGTATACAGTAGCTAGCTGCGGAGTCACCTAGTGCAG”, the binding signal was 12400 fluorescence intensity (a.u.). As for “CACGCCACAATTACAATTATACTCCACACTCCGGTAGGCGCGGAGTCACCTAGTGCAG”, the binding signal is 3450 fluorescence intensity (a.u.). Regarding “ACTAATATGACTTAATTAAACATTATCGACACAACATCCACGGAGTCACCTAGTGCAG”, the binding signal is 20500 fluorescence intensity (a.u.). As for “TCAGTAACATTATTGGTTAAATTTTAAATTTTGAATAGGCCGGAGTCACCTAGTGCAG”, the binding signal is 5870 fluorescence intensity (a.u.). For the sequence “CAGCGTGATTTCCAGAATCCCTTTGTCTTGTTGAGAGATTCGGAGTCACCTAGTGCAG”, the binding signal is 4280 fluorescence intensity (a.u.). As to “TCATTAATTAACATTTAAATTTACTTTCATATAATTGTGACGGAGTCACCTAGTGCAG”, the binding signal was 37400 fluorescence intensity (a.u.). Take “AGGCGAGTTGGTGATTGACTTGCCAGTTCAATCAACAATTCGGAGTCACCTAGTGCAG”: the binding signal was 19700 fluorescence intensity (a.u.). With “GAAACCTGATGATGCTTGATGGAAATCCATTAGACAGCGTCGGAGTCACCTAGTGCAG”, the binding signal is 8850 fluorescence intensity (a.u.). With “CCTTGTATCTAATAATTACCGTCCTGTAACGTAATCCGGGCGGAGTCACCTAGTGCAG”, the binding signal is 4600 fluorescence intensity (a.u.).

Take “CAGTGTTAACGGAAGTGATTTAGATGAATATTAAGTATGGCGGAGTCACCTAGTGCAG”: the binding signal is 5290 fluorescence intensity (a.u.).

Consider “TTTGATTTTAATATCTTGCACATAATTATTCGTAGGGTTACGGAGTCACCTAGTGCAG”, for which the binding signal was 29400 fluorescence intensity (a.u.). Consider “TAGAACTAGAATAAGCATCAATCAATCTAAGCAAGTCAGCCGGAGTCACCTAGTGCAG”, for which the binding signal is 7560 fluorescence intensity (a.u.). For the sequence “CATTGATTTCGAGCTATGCCAGGTTCGGGGATCTTGATGTCGGAGTCACCTAGTGCAG”, the binding signal is 5690 fluorescence intensity (a.u.).

In the case of “TGGATGATGATGAGCAACAGAGACGAGCACCAGAGCTGCACGGAGTCACCTAGTGCAG”, the binding signal is 5210 fluorescence intensity (a.u.). As for “TTGTGAGTCAATTACATTGGTTTTAACAGTTAAGGATCAACGGAGTCACCTAGTGCAG”, the binding signal was 6900 fluorescence intensity (a.u.). Regarding “GCCGATTGATGATCCCGCATCATTGGAGCTAACAATCTTCCGGAGTCACCTAGTGCAG”, the binding signal is 28800 fluorescence intensity (a.u.). Regarding “ATAAATTTAACTCTAAGAGTTGGGTTTGGAATAGAGTTGTCGGAGTCACCTAGTGCAG”, the binding signal was 5850 fluorescence intensity (a.u.). “TACATGATGACATAACTATCGAGTTAGTCCAATCCAATTTCGGAGTCACCTAGTGCAG”: the binding signal is 5020 fluorescence intensity (a.u.). As to “ATGATTGATTGTAAATTAGGTTGAATAATTGATATATACTCGGAGTCACCTAGTGCAG”, the binding signal was 54800 fluorescence intensity (a.u.). Take “GGTTCTTTAATTATCCATCTCTATCTACGAACTTGCAAGACGGAGTCACCTAGTGCAG”: the binding signal is 10400 fluorescence intensity (a.u.).

Take “TTAAATTTAGGACCGAATTACACGTACGTCAGGCGCGCTCCGGAGTCACCTAGTGCAG”: the binding signal is 4510 fluorescence intensity (a.u.). Take “CTGAATAATTATGCCAGTAATTCGCTCTAGTCCAAACCATCGGAGTCACCTAGTGCAG”: the binding signal was 9420 fluorescence intensity (a.u.). As for “GACTTAACTGTCCGTGAAACATTGTCCATCCCATCCCATCCGGAGTCACCTAGTGCAG”, the binding signal is 3770 fluorescence intensity (a.u.). The result for “AGATGATGATGGCCTGGAATTACTAGGCAAGGGGAGCAACCGGAGTCACCTAGTGCAG” reads 4060 fluorescence intensity (a.u.). In the case of “CACCCTAAACCCAAATTGATATACGTCTCTTTTCGAAACACGGAGTCACCTAGTGCAG”, the binding signal is 7850 fluorescence intensity (a.u.).

Regarding “CTTTTAGATTGCTAGAACATATATATATATATATATAAATCGGAGTCACCTAGTGCAG”, the binding signal was 3610 fluorescence intensity (a.u.). Regarding “GTAGATTAAGCCTGATTTGGAAGAGCATTGAATCAGTTTACGGAGTCACCTAGTGCAG”, the binding signal is 17600 fluorescence intensity (a.u.). On to “TACATTTTGACATTTAATTGTCAGCATATACAAACAGTTACGGAGTCACCTAGTGCAG”, for which the binding signal is 4720 fluorescence intensity (a.u.). On to “TGTTAGACTATGCCATCAATTGTAATTGTTGGTTCTGATGCGGAGTCACCTAGTGCAG”, for which the binding signal was 4250 fluorescence intensity (a.u.). As to “GATCCTTTGACAGCTGTTTTGACAATTTCTTAAACTACGACGGAGTCACCTAGTGCAG”, the binding signal was 9260 fluorescence intensity (a.u.). Turning to “AACCATAGTTTGATCAGTTTAATTTATGCACATATCTTTTCGGAGTCACCTAGTGCAG”, the binding signal was 3720 fluorescence intensity (a.u.). Turning to “AATGATGGATTTTATGTGTTCCCCAGATGTCGATGCGCCACGGAGTCACCTAGTGCAG”, the binding signal was 24200 fluorescence intensity (a.u.). For “GCTGATTAGCCAAAGCTGAATTCAGCCAAACTTCAATGTACGGAGTCACCTAGTGCAG”, the binding signal was 26600 fluorescence intensity (a.u.).

On to “AAATGATGTATAGTTAGGATTGGAGTGGTACTTGAAGGCCCGGAGTCACCTAGTGCAG”, for which the binding signal was 3520 fluorescence intensity (a.u.). For “TGCTGATGGAACTAGGGGAGGCCTCTTCACGGCTTGGAGGCGGAGTCACCTAGTGCAG”, the binding signal is 3900 fluorescence intensity (a.u.). Consider “ACAGTTCAATCACAGCAAGAAACTCCTTGTACCCTGATATCGGAGTCACCTAGTGCAG”, for which the binding signal was 15800 fluorescence intensity (a.u.). For the sequence “TGTAGATGATTTTGATCTTGATTTTGCACGTATGCATAACCGGAGTCACCTAGTGCAG”, the binding signal was 19200 fluorescence intensity (a.u.).
